From the supplement of paper PMC4967469
pIC50: −log10 of the molar value. A lower IC50 marks a more sensitive line; a limit (>, <) means that the fit lies beyond the doses tested. For AUC the same curve is integrated over the 256-fold range of doses and scaled to a fraction; the more sensitive the line, the further below 1. For some of these results: The top dose, if marked as inferred, is not printed in the source and was worked back from the curve model.

Legend:
Assay in all cases: Viability of human cancer cell lines after 72 h of drug (GDSC screen)
NPK76-II-72-1 = compound: COc1cc(C(=O)NC2CCN(C)CC2)ccc1Nc1ncc2c(n1)N(C1CCCC1)C(C)CC(=O)N2C [NPK76-II-72-1]; conditions: top dose 10.24 µM; top dose inferred
Protocol: (§1)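 Human cancer cell lines in 384-well plates, medium with 10% serum, drug for 72 h over a 256-fold dose range (nine 2-fold or five 4-fold steps up to the top dose). Adherent lines were fixed and stained with the nucleic acid dye Syto60, suspension lines read with resazurin; signal relative to control wells, capped at 0 and 100%. One two-parameter sigmoid per drug and line, fitted in a mixed model over all curves with the slope shared within a line.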

Bexarotene = compound: C=C(c1ccc(C(=O)O)cc1)c1cc2c(cc1C)C(C)(C)CCC2(C)C [Bexarotene]; conditions: top dose 8 µM
Protocol: as §1

BMS-345541 = compound: Cc1ccc2nc(NCCN)c3ncc(C)n3c2c1 [BMS-345541]; conditions: top dose 16 µM
Protocol: as §1

AZD7762 = compound: NC(=O)Nc1cc(-c2cccc(F)c2)sc1C(=O)N[C@H]1CCCNC1 [AZD7762]; conditions: top dose 2 µM
Protocol: as §1

GSK-650394 = compound: O=C(O)c1ccc(-c2c[nH]c3ncc(-c4ccccc4)cc23)cc1C1CCCC1 [GSK-650394]; conditions: top dose 16 µM; top dose inferred
Protocol: as §1

Etoposide = compound: COc1cc([C@@H]2c3cc4c(cc3[C@@H](O[C@@H]3O[C@@H]5CO[C@@H](C)O[C@H]5[C@H](O)[C@H]3O)[C@H]3COC(=O)[C@H]23)OCO4)cc(OC)c1O [Etoposide]; conditions: top dose 16 µM
Protocol: as §1

XAV 939 = compound: Oc1nc(-c2ccc(C(F)(F)F)cc2)nc2c1CSCC2 [XAV 939]; conditions: top dose 5 µM; top dose inferred
Protocol: as §1

YK 4-279 = compound: COc1ccc(C(=O)CC2(O)C(=O)Nc3c(Cl)ccc(Cl)c32)cc1 [YK 4-279]; conditions: top dose 10 µM
Protocol: as §1

Row | Cell Line | AUC (NPK76-II-72-1) | pIC50 (NPK76-II-72-1) | AUC (Bexarotene) | pIC50 (Bexarotene) | AUC (BMS-345541) | pIC50 (BMS-345541) | AUC (AZD7762) | pIC50 (AZD7762) | AUC (GSK-650394) | pIC50 (GSK-650394) | AUC (Etoposide) | pIC50 (Etoposide) | AUC (XAV 939) | pIC50 (XAV 939) | AUC (YK 4-279) | pIC50 (YK 4-279)
1 | SNU-387 (liver, adherent) | 0.838 | 5.08 | 0.924 | < 5.10 | 0.862 | < 4.80 | 0.442 | 7.07 | 0.943 | < 4.80 | 0.841 | 4.87 | 0.961 | < 5.30 |  | 
2 | SW626 (ovary, adherent) | 0.923 | < 4.99 | 0.939 | < 5.10 | 0.817 | 4.95 | 0.713 | 6.25 | 0.847 | 4.82 | 0.796 | 5.04 | 0.932 | < 5.30 |  | 
3 | SW948 (large intestine, adherent) | 0.938 | < 4.99 | 0.981 | < 5.10 | 0.919 | < 4.80 | 0.915 | < 5.70 | 0.866 | < 4.80 | 0.966 | < 4.80 | 0.979 | < 5.30 |  | 
4 | SW954 (urogenital system, adherent) | 0.65 | 5.77 | 0.961 | < 5.10 | 0.8 | 5.11 | 0.695 | 6.35 | 0.651 | 5.58 | 0.534 | 5.91 | 0.87 | 5.32 |  | 
5 | SW1573 (lung adenocarcinoma, adherent) | 0.972 | < 4.99 | 0.966 | < 5.10 | 0.932 | < 4.80 | 0.795 | 5.88 | 0.98 | < 4.80 | 0.606 | 5.67 | 0.893 | < 5.30 |  | 
6 | SW1783 (glioma, adherent) | 0.991 | < 4.99 | 0.981 | < 5.10 | 0.916 | < 4.80 | 0.815 | 6.02 | 0.95 | < 4.80 | 0.694 | 5.48 | 0.974 | < 5.30 |  | 
7 | T84 (large intestine, adherent) | 0.928 | < 4.99 | 0.94 | < 5.10 | 0.925 | < 4.80 | 0.989 | < 5.70 | 0.651 | 5.58 | 0.984 | < 4.80 | 0.981 | < 5.30 |  | 
8 | TGBC1TKB (biliary tract, adherent) | 0.987 | < 4.99 | 0.939 | < 5.10 | 0.965 | < 4.80 | 0.869 | 5.74 | 0.969 | < 4.80 | 0.931 | < 4.80 | 0.979 | < 5.30 |  | 
9 | TGBC24TKB (biliary tract, adherent) | 0.934 | < 4.99 |  |  | 0.946 | < 4.80 |  |  | 0.948 | < 4.80 | 0.967 | < 4.80 | 0.979 | < 5.30 | 0.795 | 5.37
10 | TMK-1 (stomach, adherent) | 0.944 | < 4.99 | 0.942 | < 5.10 | 0.891 | < 4.80 | 0.825 | 5.89 | 0.904 | < 4.80 | 0.718 | 5.37 | 0.956 | < 5.30 |  | 
11 | TOV-112D (ovary, adherent) | 0.766 | 5.42 | 0.902 | < 5.10 | 0.687 | 5.47 | 0.725 | 6.26 | 0.487 | 6.03 | 0.316 | 6.52 | 0.981 | < 5.30 |  | 
12 | TYK-nu (ovary, adherent) | 0.942 | < 4.99 | 0.837 | 5.23 | 0.962 | < 4.80 | 0.634 | 6.52 | 0.955 | < 4.80 | 0.668 | 5.52 | 0.958 | < 5.30 |  | 
13 | UACC-893 (breast, adherent) | 0.938 | < 4.99 | 0.896 | < 5.10 | 0.901 | < 4.80 | 0.98 | < 5.70 | 0.982 | < 4.80 | 0.965 | < 4.80 | 0.948 | < 5.30 |  | 
14 | VAL (B-cell lymphoma, suspension) | 0.678 | 5.70 | 0.978 | < 5.10 | 0.827 | 5.01 | 0.537 | 6.80 | 0.9 | < 4.80 | 0.852 | 4.91 | 0.983 | < 5.30 |  | 
15 | VCaP (prostate, adherent) | 0.898 | < 4.99 | 0.977 | < 5.10 | 0.893 | < 4.80 | 0.868 | 5.71 | 0.958 | < 4.80 | 0.725 | 5.35 | 0.981 | < 5.30 |  | 
16 | VM-CUB-1 (bladder, adherent) | 0.974 | < 4.99 | 0.967 | < 5.10 | 0.978 | < 4.80 |  |  | 0.847 | 4.95 | 0.636 | 5.63 |  |  | 0.665 | 5.75
17 | VMRC-MELG (melanoma, adherent) | 0.939 | < 4.99 | 0.989 | < 5.10 | 0.953 | < 4.80 | 0.947 | < 5.70 | 0.988 | < 4.80 | 0.987 | < 4.80 | 0.988 | < 5.30 |  | 
18 | VMRC-RCZ (kidney, adherent) | 0.901 | < 4.99 | 0.942 | < 5.10 | 0.88 | < 4.80 | 0.793 | 5.97 | 0.802 | 5.03 | 0.611 | 5.67 | 0.961 | < 5.30 |  | 
19 | WIL2-NS (lymphoid neoplasm, suspension) | 0.764 | 5.51 | 0.961 | < 5.10 | 0.623 | 5.69 | 0.574 | 6.72 | 0.887 | 4.92 | 0.339 | 6.41 | 0.979 | < 5.30 |  | 
